# Data reported in the supplement of paper PMC8728848.
# Some of the results follow.
# What was measured:
# Assay in all cases: glycan array binding signal (z-score within array); higher = stronger binding
# Conditions in all cases: glycan notation: IUPAC condensed, linker removed
# Gal6S(b1-4)GlcNAc = biological target: Gal6S(b1-4)GlcNAc
# How it was run: (§1)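 Glycan array data came from 3228 arrays in the Consortium for Functional Glycomics database, and only arrays with an available protein sequence were kept. Glycan names were put into IUPAC-condensed notation, and columns mapping to the same glycan were averaged. The binding signal is a within-array Z-score, averaged across arrays of one protein sequence run at different concentrations or buffers and across linkers. A negative Z-score can be read as non-binding.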
# Gal6S(b1-4)GlcNAc6S = biological target: Gal6S(b1-4)GlcNAc6S
# How it was run: as §1
# GalNAc(a1-3)Gal = biological target: GalNAc(a1-3)Gal
# How it was run: as §1
# GalNAc(a1-3)GalNAc = biological target: GalNAc(a1-3)GalNAc
# How it was run: as §1
# [1] = biological target: GalNAc(a1-3)GalNAc(a1-3)Gal(a1-4)Gal(b1-4)GlcNAc
# How it was run: as §1
# [2] = biological target: GalNAc(a1-3)GalNAc(b1-3)Gal(a1-4)Gal(b1-4)Glc
# How it was run: as §1
# GalNAc(b1-3)Gal = biological target: GalNAc(b1-3)Gal
# How it was run: as §1
# [3] = biological target: GalNAc(b1-3)Gal(a1-4)Gal(b1-4)GlcNAc
# How it was run: as §1
# [4] = biological target: GalNAc(b1-3)Gal(a1-4)Gal(b1-4)GlcNAc(b1-3)Gal(b1-4)Glc
# How it was run: as §1
# [5] = biological target: GalNAc(b1-3)Gal(a1-6)Gal(b1-4)Glc
# How it was run: as §1
# GalNAc(b1-3)GalNAc = biological target: GalNAc(b1-3)GalNAc
# How it was run: as §1
# GalNAc(b1-3)GlcNAc = biological target: GalNAc(b1-3)GlcNAc
# How it was run: as §1
# GalNAc(b1-4)Gal(b1-4)Glc = biological target: GalNAc(b1-4)Gal(b1-4)Glc
# How it was run: as §1
# GalNAc(b1-4)GlcNAc = biological target: GalNAc(b1-4)GlcNAc
# How it was run: as §1
# [6] = biological target: GalNAc(b1-4)GlcNAc(b1-2)Man
# How it was run: as §1
# [7] = biological target: GalNAc(b1-4)GlcNAc(b1-2)Man(a1-3)[GalNAc(b1-4)GlcNAc(b1-2)Man(a1-6)]Man(b1-4)GlcNAc(b1-4)GlcNAc
# How it was run: as §1
# [8] = biological target: GalNAc(b1-4)GlcNAc(b1-3)GalNAc(b1-4)GlcNAc
# How it was run: as §1
# GalNAc(b1-4)GlcNAc6S = biological target: GalNAc(b1-4)GlcNAc6S
# How it was run: as §1
# GalNAc(b1-6)GalNAc = biological target: GalNAc(b1-6)GalNAc
# How it was run: as §1
# GalNAc3S(b1-4)GlcNAc = biological target: GalNAc3S(b1-4)GlcNAc
# How it was run: as §1
# GalNAc3S(b1-4)GlcNAc3S = biological target: GalNAc3S(b1-4)GlcNAc3S
# How it was run: as §1
# [9] = biological target: GalNAc3S(b1-4)[Fuc(a1-3)]GlcNAc
# How it was run: as §1
# GalNAc4S6S(b1-4)GlcNAc = biological target: GalNAc4S6S(b1-4)GlcNAc
# How it was run: as §1
# GalNAc6S(b1-4)GlcNAc = biological target: GalNAc6S(b1-4)GlcNAc
# How it was run: as §1
# Glc(a1-4)Glc = biological target: Glc(a1-4)Glc
# How it was run: as §1
# [10] = biological target: Glc(a1-4)Glc(a1-4)Glc(a1-4)Glc
# How it was run: as §1
# Glc(a1-6)Glc(a1-6)Glc = biological target: Glc(a1-6)Glc(a1-6)Glc
# How it was run: as §1
# [11] = biological target: Glc(a1-6)Glc(a1-6)Glc(a1-6)Glc
# How it was run: as §1
# Glc(b1-4)Glc = biological target: Glc(b1-4)Glc
# How it was run: as §1
# Glc(b1-6)Glc = biological target: Glc(b1-6)Glc
# How it was run: as §1
# GlcA(b1-3)Gal = biological target: GlcA(b1-3)Gal
# How it was run: as §1
# GlcA(b1-3)GlcNAc = biological target: GlcA(b1-3)GlcNAc
# How it was run: as §1
# GlcA(b1-6)Gal = biological target: GlcA(b1-6)Gal
# How it was run: as §1
# [12] = biological target: GlcA3S(b1-3)Gal(b1-4)GlcNAc(b1-2)Man
# How it was run: as §1
# [13] = biological target: GlcA3S(b1-3)Gal(b1-4)GlcNAc(b1-3)Gal(b1-4)Glc
# How it was run: as §1
# [14] = biological target: GlcNAc(a1-3)Gal(b1-4)GlcNAc
# How it was run: as §1
# [15] = biological target: GlcNAc(a1-4)Gal(b1-3)GlcNAc
# How it was run: as §1
# [16] = biological target: GlcNAc(a1-4)Gal(b1-4)GalNAc
# How it was run: as §1
# [17] = biological target: GlcNAc(a1-4)Gal(b1-4)GlcNAc
# How it was run: as §1
# [18] = biological target: GlcNAc(a1-4)Gal(b1-4)GlcNAc(b1-3)Gal(b1-4)Glc
# How it was run: as §1
# [19] = biological target: GlcNAc(a1-4)Gal(b1-4)GlcNAc(b1-3)Gal(b1-4)GlcNAc
# How it was run: as §1
# [20] = biological target: GlcNAc(a1-4)Gal(b1-4)GlcNAc(b1-3)Gal(b1-4)GlcNAc(b1-3)Gal(b1-4)GlcNAc
# How it was run: as §1
# [21] = biological target: GlcNAc(a1-4)Gal(b1-4)GlcNAc(b1-3)Gal(b1-4)[Fuc(a1-3)]GlcNAc(b1-3)Gal(b1-4)[Fuc(a1-3)]GlcNAc
# How it was run: as §1
# [22] = biological target: GlcNAc(a1-6)Gal(b1-4)GlcNAc
# How it was run: as §1
# [23] = biological target: GlcNAc(b1-2)Gal(b1-3)GalNAc
# How it was run: as §1
binder,measurement,setting,value
F17-L (Escherichia coli) (protein) GPDDYVPSQIAVNTSTLPGVVIGPADAHTYPRVIGELAGTSNQYVFNGGAIALMRGKFTPALPKIGSITYTFHQGNSRDSSDFDIYDIGVSGLGIIIGMAGYWPATPLVPINSSGIYIDPVGANTNPNTYNGATASFGARLFVAFVATGRLPNGYITIPTRQLGTILLEAKRTSLNNKGLTAPVMLNGGRIQVQSQTHHHHHH,glycan array binding signal (z-score),Gal6S(b1-4)GlcNAc,-0.154
same,glycan array binding signal (z-score),Gal6S(b1-4)GlcNAc6S,-0.119
same,glycan array binding signal (z-score),GalNAc(a1-3)Gal,0.004
same,glycan array binding signal (z-score),GalNAc(a1-3)GalNAc,-0.04
same,glycan array binding signal (z-score),[1],-0.173
same,glycan array binding signal (z-score),[2],-0.16
same,glycan array binding signal (z-score),GalNAc(b1-3)Gal,0.015
same,glycan array binding signal (z-score),[3],-0.147
same,glycan array binding signal (z-score),[4],0.668
same,glycan array binding signal (z-score),[5],-0.124
same,glycan array binding signal (z-score),GalNAc(b1-3)GalNAc,-0.19
same,glycan array binding signal (z-score),GalNAc(b1-3)GlcNAc,0.482
same,glycan array binding signal (z-score),GalNAc(b1-4)Gal(b1-4)Glc,-0.085
same,glycan array binding signal (z-score),GalNAc(b1-4)GlcNAc,-0.004
same,glycan array binding signal (z-score),[6],-0.217
same,glycan array binding signal (z-score),[7],-0.082
same,glycan array binding signal (z-score),[8],0.184
same,glycan array binding signal (z-score),GalNAc(b1-4)GlcNAc6S,-0.09
same,glycan array binding signal (z-score),GalNAc(b1-6)GalNAc,-0.038
same,glycan array binding signal (z-score),GalNAc3S(b1-4)GlcNAc,0.035
same,glycan array binding signal (z-score),GalNAc3S(b1-4)GlcNAc3S,-0.17
same,glycan array binding signal (z-score),[9],-0.148
same,glycan array binding signal (z-score),GalNAc4S6S(b1-4)GlcNAc,0.032
same,glycan array binding signal (z-score),GalNAc6S(b1-4)GlcNAc,0.037
same,glycan array binding signal (z-score),Glc(a1-4)Glc,-0.121
same,glycan array binding signal (z-score),[10],-0.06
same,glycan array binding signal (z-score),Glc(a1-6)Glc(a1-6)Glc,-0.033
same,glycan array binding signal (z-score),[11],-0.144
same,glycan array binding signal (z-score),Glc(b1-4)Glc,-0.1
same,glycan array binding signal (z-score),Glc(b1-6)Glc,0.058
same,glycan array binding signal (z-score),GlcA(b1-3)Gal,-0.203
same,glycan array binding signal (z-score),GlcA(b1-3)GlcNAc,1
same,glycan array binding signal (z-score),GlcA(b1-6)Gal,-0.156
same,glycan array binding signal (z-score),[12],-0.116
same,glycan array binding signal (z-score),[13],-0.116
same,glycan array binding signal (z-score),[14],0.441
same,glycan array binding signal (z-score),[15],-0.197
same,glycan array binding signal (z-score),[16],-0.174
same,glycan array binding signal (z-score),[17],-0.107
same,glycan array binding signal (z-score),[18],-0.113
same,glycan array binding signal (z-score),[19],0.012
same,glycan array binding signal (z-score),[20],-0.149
same,glycan array binding signal (z-score),[21],-0.101
same,glycan array binding signal (z-score),[22],-0.052
same,glycan array binding signal (z-score),[23],-0.02
